Measured values: the supplement of paper PMC3334620
The full ranking holds about 33,000 sequences; the median of “E-score (-0.5 to 0.5)” is about -0.017, and the highest 2% start at about 0.3. Some of the results follow.

Target: T1, Sut1 (UniProt P53032)
T1 sequence: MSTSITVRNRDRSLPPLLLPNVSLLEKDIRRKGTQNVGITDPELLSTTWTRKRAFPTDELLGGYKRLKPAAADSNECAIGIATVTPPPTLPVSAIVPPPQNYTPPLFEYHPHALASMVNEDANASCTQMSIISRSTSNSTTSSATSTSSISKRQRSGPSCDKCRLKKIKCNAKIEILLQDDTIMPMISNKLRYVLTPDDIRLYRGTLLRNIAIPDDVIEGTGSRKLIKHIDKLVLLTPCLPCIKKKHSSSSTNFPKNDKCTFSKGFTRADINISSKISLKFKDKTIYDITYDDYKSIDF
Assay: PBM E-score (8-mer binding enrichment) (E-score (-0.5 to 0.5)); higher = stronger / more preferred TF binding; most listed sequences are background and not binding sites
Conditions: protein concentration: 200 nM; construct: GST-full length
Summary of the method: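 Full-length yeast transcription factors or their DNA-binding domains, GST-tagged and expressed with PURExpress, were applied at about 100-200 nM to universal all-10-mer Agilent arrays. These arrays had been made double-stranded by primer extension on fresh or once-stripped slides. Detection used fluorescent anti-GST, normalisation used masliner, and E-scores for ungapped eight-base words pooled with reverse complements came from the Universal PBM Analysis Suite.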

Sequence | PBM E-score
CCCGAGAG | -0.0293
CCCAACTA | 0.0875
CTACGTGA | -0.152
AATTCGCC | 0.15
GCGGGCAA | 0.0142
ATAGCTGC | 0.0779
CATTCGTC | -0.0416
CTAAGTCA | 0.0811
GGTTGGCA | -0.186
CGGGAACA | 0.0292
CCAAGCTA | -0.221
AAATAGAG | 0.128
GACGCCAA | -0.101
AACGACAG | -0.0692
GAAGAGTA | 0.105
CCCAGAAA | 0.0506
TAGCCGGA | 0.282
GGGCAAAC | -0.148
CGTTCTGC | 0.0265
CTCGGCAC | -0.167
ACGTGTGG | -0.19
AAGGCTAC | -0.157
AGTTGTGG | 0.0614
ACCAAGCC | -0.27
ACACGTCT | -0.0318

Sequence | PBM E-score
AAACGAGC | -0.0772
CTACACCA | 0.0145
CTTGTACA | 0.102
ATTCACCA | 0.0944
CCAACATC | -0.12
AAACCGCT | -0.0687
CCTGAGCC | -0.332
ACATGGTC | -0.136
AGTTTAAT | 0.069
AATCTAAG | 0.0379
TCTTGGCA | -0.0212
CCGCCAAG | -0.255
CACACGTG | -0.266
GAGCACCA | -0.136
CATCCGTA | 0.0986
ACAAGACG | -0.1
CGCCTGGC | -0.255
GATCAAGC | -0.0368
AGGGGTGG | -0.277
CAAGACTG | -0.0769
GGTGGAGA | -0.291
CAATAGTG | 0.132
CAGATTGA | -0.0978
CTGGTGAC | -0.288
GGAAAGCA | 0.0465

Sequence | PBM E-score
TGTCGAAA | 0.0677
AGAAACTG | 0.0171
GGCAATAA | 0.0721
CTCCTGCC | 0.00035
CGAACTGC | -0.00207
CGACTTAA | 0.00564
ATCTAGTG | -0.0694
AGTAAGGG | 0.0361
GCACAATA | -0.214
ATTGGAAG | 0.147
ATGTATCC | 0.102
GATGCGAA | 0.124
GGCTCGCA | -0.193
ACCCTGCC | -0.0698
AGGAATAA | 0.0518
ATACCATG | -0.127
ACAAATCT | 0.0874
CCGATTTA | 0.246
ACCTAAGA | -0.00292
AGGGCACA | -0.105
GATCCTCA | 0.0258
ATGCCAGC | -0.25
CAGTCTCA | 0.0467
GGGATCCC | -0.0974
AGCATGAT | 0.0775

Sequence | PBM E-score
AGTAACAT | 0.106
AGACGTAG | -0.156
ATGGACGC | -0.014
ACCTACGC | -0.0423
AAGGCCGA | 0.115
CGCGAACG | -0.0292
AGCTGACC | 0.0565
AAACGATC | 0.118
GAATAGGC | -0.0173
CGGCCTCC | -0.215
GCTGGAAA | 0.0198
CATTTCAA | 0.275
GAGGCATA | 0.0426
AATCTCCG | 0.454
TGCCTGAA | -0.151
CTCCGATC | 0.38
ACTCACAG | 0.0594
CTCGGCCC | -0.209
AGGAATAG | 0.153
AAAGTATC | 0.174
ACTGCCGG | 0.0182
ATCGCCTC | -0.067
ATAAACCA | 0.0881
ACTACTGA | -0.178
GAAGGTGA | 0.00383

Sequence | PBM E-score
AGTGCTTC | 0.0385
AAAACTTC | 0.158
GGGATGAA | -0.138
AGCATTAC | 0.0106
CAAACGTC | -0.144
CCTAACTC | -0.0733
CTCGGACA | 0.354
CTCTGCCA | -0.129
GCATACCC | -0.135
ATATTAAC | 0.252
ATAACAAC | 0.14
GCTCGTTA | 0.00927
AATGGCTC | -0.024
CGTAGGCA | -0.169
CTAATTGA | 0.16
CCACAATA | -0.113
ATCTGATA | -0.17
ATTGTCTA | 0.193
GCAATCGC | -0.15
GCGGTAAA | 0.0988
ACGCTCCA | 0.0226
ATACCTCC | -0.11
ACCTCCCC | -0.237
CCCGCCCG | -0.117
AGATTGAA | 0.249

Sequence | PBM E-score
AACATACC | 0.12
TCTCCGAA | 0.446
ACAGGATA | -0.0461
TCATACCA | 0.032
GCTACAGA | -0.18
CCTGACCA | -0.102
CGCGGTAG | 0.0234
CAGACTTA | -0.227
ATCTCAAA | 0.0485
GCGACAAA | -0.0734
ACACTGAA | 0.083
CAAGACTA | -0.165
CATGGGAG | -0.223
TGTGGCAA | -0.0604
GACTCCAA | -0.0971
GAACTGCA | -0.0146
GATATCAA | 0.0835
CTGCTTAC | -0.138
ACAACAGC | 0.00492
AGCCCACG | -0.215
ATTCCGGG | 0.295
AGGTAATC | 0.177
CGCGTATC | -0.127
AGTTCTGA | 0.0627
CAACTTCA | -0.0874

Sequence | PBM E-score
TGGGAACA | -0.125
ATAAGACA | 0.0349
AAAGGGCA | -0.163
GTCCTATA | -0.113
AAGGGAGT | -0.113
CATGAAGA | 0.0508
AAATGCAA | 0.199
CGACGATA | 0.0118
AACGTGGA | -0.0715
AGACGAAG | 0.103
AAAGTCCT | 0.208
ACGCAAAG | -0.00456
ACGACTTG | -0.033
GTGTCTAA | -0.0776
CAAATCTA | 0.146
CCCTCGGC | -0.257
GAGTCTCC | 0.192
GCAAACAC | -0.238
AAGTTTTC | 0.233
CGACAAAG | 0.191
ATTCCTGC | -0.0439
CGCGAACC | -0.00585
CTGTTCTC | -0.0136
GCACTACC | -0.075
AAAAGAAA | 0.237

Sequence | PBM E-score
ACAGTCGA | -0.21
AAGCAGCG | -0.113
GCAATCCC | -0.0279
AGGTAACA | 0.0751
GAATGAAC | 0.18
GAACCCGA | -0.0651
CAGAACGC | -0.127
GCACGCGA | -0.151
CTAAGTCC | 0.114
CTCACTCC | 0.187
CTGAGTTC | 0.00543
GGGGTGAC | -0.108
TACCCAAA | -0.102
CCGCAAAC | -0.0863
GGGCAACC | -0.158
ACTTGTAT | 0.102
ACACTATG | 0.0863
AGCTCAAG | -0.092
CTTGAAAG | 0.02
CTATAGGC | -0.222
GCGCGAGC | -0.15
CCACCGAG | -0.164
GTGGACAC | -0.0681
CCCCATAG | -0.173
CAACAATG | 0.0583

Sequence | PBM E-score
CGTTCCCA | -0.146
CATATTTC | -0.0077
CCGATTGC | 0.109
AGCATCAG | -0.0528
ATAGTCCA | 0.0136
ATCAATCC | 0.108
CCGTCGAA | 0.0383
AAATATTA | 0.227
ACGAGGTA | 0.0273
CGTAACTC | -0.0052
AGGTTCAT | -0.216
CCGCGTGC | 0.00164
CATACCAC | -0.0444
CACATGGC | -0.114
GATTAAAA | 0.223
AGAAGACC | -0.149
CTACACGC | -0.313
CTGTACTA | 0.112
ACAAATGG | 0.0989
